This note sets out measurements from ChEMBL document CHEMBL4888484, “Replenishing the malaria drug discovery pipeline: Screening and hit evaluation of the MMV Hit Generation Library 1 (HGL1) against asexual blood stage Plasmodium falciparum ,using a nano luciferase reporter read-out” (2022).

Among all 150,000 compounds or so, about 540 (0.36%) showed an effect of 50% or more. This is one part of the list.

This test has as its system Plasmodium falciparum. The test can be described thus: Primary screen in NF54 nanoGlo assay, in single point, at 2uM, 72h; a lower Z score goes with more inhibition. Format: functional, Erythrocyte. The following applies: timepoint 72 hour.
`COc1ccc([C@@H]2C=C(c3ccccc3)N=C3NN=NN32)cc1`: the % Inhibition – broadly, the change of the read-out against control, counted positive when it falls – was -11% and the Z score was determined as 1.67.
For `Cc1cc(C)nc(NC(=O)N(C)Cc2c(C)noc2C)c1` the same measures were 3% and -0.52.
In the same order, the values of `Cc1cccc(N(C)C(=O)c2ncoc2C2CCNCC2)c1` are -5% and 0.94.
For `CCc1cc(NCCc2cccnc2)ncn1` the same measures were -8% and 1.2.
On to `Cc1nc(NCc2ccc(-c3noc(C)n3)cc2)c2cccnc2n1`, for which the “% Inhibition” value is listed as -6% and the Z score came out at 0.88.
On to `O=C(c1ccc(S(=O)(=O)c2ccc(Br)cc2)o1)N(Cc1cccc(Cl)c1)[C@H]1CCS(=O)(=O)C1`, for which the “% Inhibition” value is on record as -7% and the Z score was 0.94.
In the case of `COc1ccc(CN2CCc3oc(C)c(C(=O)N4CCCN(C)CC4)c3C2)cc1`, the “% Inhibition” value was -11% and the Z score is 1.05.
For `CCCC(=O)N1CCCC(C(=O)N[C@@H]2CCCC[C@H]2NC(=O)c2ccc(OC)cc2)C1` (stereo partly specified), the “% Inhibition” value is -8% and the Z score is reported as 0.89.
As to `O=C(Cn1cccn1)NCc1cccnc1N1CCCCCCC1`, the “% Inhibition” value is -24% and the Z score came to 2.12.
For `Cc1cnc(NC(=O)c2cncc(F)c2)o1` the same measures were -2% and 0.28.
Take `COc1ccc2c(c1)[C@]1(CC2)NC(=O)N(Cc2nc(C)cs2)C1=O`: the “% Inhibition” value is reported as 4% and the Z score is -0.45.
`Cn1c(=O)[nH]c2ncc(-c3cccc(C(=O)NCC4(CO)COC4)c3)cc21`: the “% Inhibition” value was 25% and the Z score is reported as -2.84.
With `Cc1cc(C)cc(NC(=O)C2CCN(S(=O)(=O)c3cc4c(cc3C)NC(=O)CO4)CC2)c1`, the “% Inhibition” value was -12% and the Z score was determined as 1.38.
`COc1nn(C)cc1NC(=O)[C@H]1C2CCC(CC2)[C@@H]1C(F)(F)F`: the “% Inhibition” value is reported as -7% and the Z score is listed as 1.3.
In the case of `OC1(c2ccc(-c3ccc(F)cc3Cl)cc2)CCNCC1`, the “% Inhibition” value is -4% and the Z score was 0.34.
As for `CCOc1ccccc1C(=O)N1CCC[C@](c2nnnn2CCC(C)C)(N(C)C)C1`, the “% Inhibition” value is -2% and the Z score is 0.29.
For `COc1cccc(CNS(=O)(=O)c2ccc(CC(=O)N3CCCC3)s2)c1` the same measures were 3% and -0.65.
In the same order, the values of `CC(C(C)S(C)(=O)=O)N(C)Cc1ccc(C(=O)O)cc1Br` (stereo unspecified) are -7% and 1.
With `Cc1ccc(S(=O)(=O)/N=C(\CN2CCCCC2)N2CCN(S(=O)(=O)c3ccc(C)cc3)C2)cc1`, the “% Inhibition” value was -7% and the Z score is listed as 0.86.
For `CN(CCc1ccccc1)[C@H]1CCCN(Cc2nc3ccccc3[nH]2)C1` the same measures were -18% and 2.61.
As for `CC(=O)N1CCO[C@@H](CNC(=O)c2ccc(-c3cc(N)ncn3)cc2)C1`, the “% Inhibition” value is -4% and the Z score came out at 0.65.
For `Cc1ncccc1-n1cccc1C(=O)NC1CCCCCC1` the same measures were 8% and -0.79.
For `O=C(CCCn1cncn1)N1C[C@@H]2CC[C@H]1CN(Cc1ccccn1)C2` the same measures were -4% and 0.7.
In the same order, the values of `CC(C)CC(=O)N1CCN(C(=O)c2ccn(C)n2)[C@H]2CS(=O)(=O)C[C@H]21` are -5% and 0.61.
For `CN(CCCNC(=O)c1c(-c2ccccc2)cc(=O)n2c1CCC2)C1CCCCC1`, the “% Inhibition” value is -7% and the Z score is reported as 0.86.
Regarding `Fc1ccc(Cc2nnc3n2CCCC3)cc1`, the “% Inhibition” value amounted to 3% and the Z score is -0.52.
As to `CCn1cc(S(=O)(=O)N2CC[C@H](c3noc(-c4cnccn4)n3)C2)cn1`, the “% Inhibition” value was -6% and the Z score is on record as 0.81.
For `Cc1c(Cl)cccc1NC(=O)CN1C(=O)NC2(CCOCC2)C1=O` the same measures were -2% and 0.38.
In the same order, the values of `Cc1ccc2nc(-c3ccc(-n4c(C)cc(=O)cc4C)cc3)sc2c1` are -13% and 1.49.
In the same order, the values of `COC(=O)c1cc(-c2ccc3c(c2)OCO3)n[nH]1` are -15% and 2.9.
On to `O=C(NCCn1c(=O)[nH]c2ccsc2c1=O)c1cc(-c2ccc(F)cc2)c[nH]1`, for which the “% Inhibition” value is on record as -4% and the Z score amounted to 0.72.
`O=C(NCCN1CCC(CO)CC1)C1CCC1`: the “% Inhibition” value is listed as -13% and the Z score turned out to be 1.89.
In the same order, the values of `CC(C)(C)c1cc(CN2C(=O)C3CC=CCC3C2=O)no1` (stereo unspecified) are 2% and -0.21.
For the compound `O=C1N(CC2CCC2)CCC[C@@]12CCN(Cc1nccs1)C2`, the “% Inhibition” value is -4% and the Z score is 0.39.
In the same order, the values of `Cc1cnc(CCNC(=O)Cc2ccccc2)n1C1CCC1` are -3% and 0.51.
In the case of `COc1c(Cl)cc(NC(=O)NC[C@H]2CCOC2)cc1Cl`, the “% Inhibition” value is 4% and the Z score is recorded as -0.48.
In the case of `CC[C@H](C)C(=O)N1CCN(Cc2cn3cc(Cl)ccc3n2)CC1`, the “% Inhibition” value is -3% and the Z score was determined as 0.52.
In the same order, the values of `CC(C)(C)c1coc(CNC(=O)[C@H]2CCc3nnnn3CC2)n1` are -13% and 2.1.
For `Cc1cccc(C(=O)N[C@@H](CC(C)C)c2nnc3n2CCNCC3)c1O` the same measures were 2% and -0.28.
Turning to `CO[C@@]12CC[C@@H](OCC3CC3)C[C@@H]1N(Cc1c(C)cnn1C)CC2`, the “% Inhibition” value is on record as -9% and the Z score is on record as 1.49.
Take `CCc1noc(NC(C)=O)c1-c1ccc(C)c(S(=O)(=O)NC2CCCCC2)c1`: the “% Inhibition” value is -10% and the Z score turned out to be 1.38.
In the same order, the values of `Cc1cnccc1CN1CCC2(CCC(=O)N([C@H]3CC[C@H](O)CC3)C2)CC1` are 6% and -0.81.
For `COc1ccc(-c2cc(C(=O)Nc3ccc(F)cc3)n3nc(C(C)(C)C)cc3n2)cc1` the same measures were 4% and -0.52.
For `CC(C)(CO)NC(=O)c1cncc(-c2ccc3c(c2)CCO3)c1` the same measures were 29% and -3.95.
In the case of `CN(C)CCN(CC1CCCCC1)S(=O)(=O)c1cnn(C)c1`, the “% Inhibition” value is 2% and the Z score is on record as -0.28.
On to `CCn1c(C)c(-c2nc(C3CC3)no2)c(S(=O)(=O)Nc2ccccc2F)c1C`, for which the “% Inhibition” value is given as -3% and the Z score was found to be 0.43.
For `c1nn2cnnc2cc1N1CCN(Cc2csc3c2CCCC3)CC1`, the “% Inhibition” value is recorded as -1% and the Z score stood at 0.08.
For the compound `O=C1NC2(CCC2)C(=O)N1Cc1nc(Cc2ccccc2)no1`, the “% Inhibition” value is on record as -6% and the Z score came to 0.84.
In the same order, the values of `CN1CCCN(S(=O)(=O)c2ccccc2Cl)c2ccccc21` are 3% and -0.32.
For `Cc1ccc(C)c(NC(=O)C2C(=O)N[C@]34CCCCC3C2c2ccccc2O4)c1` (stereo partly specified) the same measures were 3% and -0.42.
In the same order, the values of `O=C(NCc1cncc(-c2ccsc2)c1)Nc1ccccc1C(F)(F)F` are -8% and 1.22.
Take `Cc1oc(-c2nc(CCCc3ccccc3)no2)cc1S(N)(=O)=O`: the “% Inhibition” value is reported as 32% and the Z score is reported as -3.65.
Turning to `CCCOc1ccc(-c2nsc(NC(=O)Cc3ccc(Cl)cc3)n2)cc1OC`, the “% Inhibition” value worked out at 11% and the Z score is reported as -1.75.
In the same order, the values of `COc1ccc(-c2cccc3c(N)ccnc23)cn1` are -11% and 1.87.
For `O=C(O)[C@H]1CCN(C(=O)c2cccnc2Oc2cccc(Br)c2)C1` the same measures were -17% and 1.66.
In the same order, the values of `COCCN(CC(F)(F)F)C(=O)c1scnc1COC` are -1% and 0.16.
On to `CCn1nc(C)cc1C(=O)Nc1cc(C2CC2)n[nH]1`, for which the “% Inhibition” value is recorded as -4% and the Z score came out at 0.74.
In the same order, the values of `Cc1nn(C)c(C)c1CCC(=O)N1CCC[C@@]2(CCC(=O)N(CCO)C2)C1` are -3% and 0.53.
Turning to `CO[C@H]1CCCN(C(=O)Nc2ccncc2F)C1`, the “% Inhibition” value is -3% and the Z score stood at 0.44.
For `CCC1(CC)CN(C(=O)c2ccn(C)c(=O)c2)c2ccccc21` the same measures were 34% and -1.19.
With `O=C(Cn1c2c(c(=O)n3nc(-c4ccccc4)nc13)CCC2)Nc1ccc(F)cc1`, the “% Inhibition” value was -8% and the Z score is 0.98.
In the same order, the values of `CCN(CC)c1onc(-c2ccccc2)c1CN(CC1CC1)C(=O)c1ccccc1F` are 10% and -1.21.
For `COCCCN1CC[C@H](CNC(=O)c2c(C)c3cc(F)ccc3n2C)C1` the same measures were -7% and 1.14.
In the same order, the values of `C[C@H](O)c1onc(-c2cccs2)c1C(=O)NCc1ccncc1` are -3% and 0.5.
On to `O=C(CCC1CC1)N1CC[C@H]2[C@H](CCC(=O)N2CCc2c[nH]cn2)C1`, for which the “% Inhibition” value was -4% and the Z score was 0.77.
In the same order, the values of `O=C(NCCC(c1ccccc1)c1ccccc1)c1cc2n(n1)CCN(Cc1cccc(F)c1)C2=O` are -13% and 1.84.
In the same order, the values of `CC(=O)N1CCC[C@H]1C(=O)N1CCOc2ccc(CN3CCN(C)C[C@@H]3c3ccccc3)cc2C1` are 19% and -2.44.
For `CC[C@@H](C(=O)NCCc1c(C)n[nH]c1C)n1cccn1` the same measures were 0% and 0.08.
Turning to `O=C(COC[C@H]1CCCO1)Nc1cnc2ccnn2c1`, the “% Inhibition” value is recorded as -10% and the Z score was determined as 1.14.
Regarding `CCc1nc(C)c(CN2CCCC[C@@H]2CCOC)[nH]1`, the “% Inhibition” value is -13% and the Z score is recorded as 1.2.
Take `O=C(N1CCNCC1)C1(Cc2ccccc2)CC2CCC1C2` (stereo unspecified): the “% Inhibition” value is reported as -33% and the Z score is 3.89.
Turning to `CCC(O)(C(=O)N1CCC2(CNC(=O)C2)C1)c1cccc(Cl)c1` (stereo unspecified), the “% Inhibition” value is -12% and the Z score came out at 1.4.
In the same order, the values of `N#Cc1c(F)cccc1N1CC[C@H](S(=O)(=O)N2CCCC2)C1` are 1% and -0.07.
In the same order, the values of `O=C1CC[C@H](C(=O)Nc2ccc(F)cc2Nc2ccccc2F)N1` are -6% and 0.71.
In the same order, the values of `CCN(c1ccncc1)S(=O)(=O)c1cc(C)sc1C` are -13% and 2.02.
In the case of `CCN1CCN(C(=O)[C@@H]2CC(c3ccccc3)=NO2)CC1`, the “% Inhibition” value is -1% and the Z score turned out to be 0.1.
For `COc1ccc(CCn2c(N)c(-c3nc4ccccc4s3)c3nc(C#N)c(C#N)nc32)cc1OC` the same measures were -5% and 0.86.
As to `CCN(CC)c1ccc(NS(=O)(=O)N(C)C)cn1`, the “% Inhibition” value was -9% and the Z score is listed as 1.23.
In the same order, the values of `COCCN1CC2(CCN(C(=O)c3cc(F)ccc3F)CC2)[C@H]1c1ccncc1` are -13% and 2.28.
In the same order, the values of `CCOc1ccc(NC(=O)N2CCC3(CC2)C(=O)N(CC(=O)N2CCCCC2)CN3c2ccccc2)cc1` are 0% and -0.08.
Consider `C[C@@H](CCC(=O)NCc1ccc(C#N)cc1)N1CCCC1`, for which the “% Inhibition” value was -7% and the Z score is 0.86.
In the same order, the values of `CCc1nc(NCCC(=O)NCc2ccccc2)c2cc(Cl)cc(Cl)c2n1` are -14% and 1.32.
In the same order, the values of `CC(OC(=O)CCC1NC(=O)NC1=O)C(=O)Nc1ccccc1` (stereo unspecified) are -3% and 0.47.
